In PubChem BioAssay (NCATS):
The inconclusive results got no clear call from the source; some entries with a clear call stand among them for comparison. No potency is given beside an inconclusive call; the fits are too rough. Calls of active or inactive are those of the source. The call rests on the fitted dose curve; in most records, active means well fitted inhibition curve with a large enough effect; inconclusive means small, poorly fitted or top-dose-only effect; inactive means no such curve, though single readings can be large or run the other way.
Potency means the concentration at half of the fitted maximal effect; tags describe the fitted curve by direction and shape.

Assay: P-glycoprotein substrates identified in KB-3-1 adenocarcinoma cell line, qHTS therapeutic library screen (AID 1346986); further: nearly all actives have a fitted effect of over 60% in size;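 further: potency is for cytotoxicity meaning loss of cell viability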
Conditions: KB-3-1 parental cells viability, CellTiter-Glo, 72 h; series mostly up to 44.5 µM
Protocol: The ATP-binding cassette transporters P-glycoprotein (P-gp) is known to limit brain penetration of many chemotherapy drugs. […] We used the CellTiter-Glo viability assay to test library compounds against the parental KB-3-1 human cervical adenocarcinoma cell line and the colchicine-selected sub-line KB-8-5-11 that over-expresses P-gp. KB-8-5-11 cells were also tested in the presence of a P-gp inhibitor (tariquidar) to assess reversability of transporter-mediated resistance. Of the tested compounds, a total of 90 P-gp substrates were identified including 55 newly identified P-gp substrates. Substrates were confirmed using an orthogonal killing assay against HEK-293 cells transfected with P-gp. As exemplars, we confirmed that AT7159 (cyclin-dependent kinase inhibitor); AT9283, (Janus kinase 2/3 inhibitor); ispinesib (kinesin spindle protein inhibitor); gedatolisib (PKI-587, phosphoinositide 3-kinase/mammalian target of rampamycin inhibitor); GSK-690693 (AKT inhibitor); and KW-2478 (heat shock protein 90 inhibitor) were substrates , and direct ATPase stimulation was assessed. ABCG2 was also found to confer high levels of resistance to AT9283, GSK-690693 and gedatolisib, while ispinesib, AT7519 and KW-2478 were weaker substrates.
The HeLa derivative cell line, KB-3-1, and its colchicine-selected, P-gp-overexpressing subline, KB-8-5-11 were maintained in DMEM with 10% FCS and Pen/Strep with glutamine at 37 degree C in 5% CO2. For KB-8-5-11 cells, colchicine was added to the medium at a concentration of 100 ng/mL. HEK-293 cells transfected with empty vector (pcDNA) or vector containing human ABCB1 (MDR-19) or ABCG2 (R-5) have been described previously (Robey, Lin, Qiu, Chan & Bates, 2011) and were maintained in EMEM supplemented with 10% FCS, Pen/Strep and glutamine with 2 mg/ml G418 to select for the expression of the transporter. Cultures were confirmed to be free of mycoplasma infection using the MycoAlert Mycoplasma Detection Kit (Lonza, Walkersville, MD). For the screen, assay medium was identical to culture medium except for KB-8-5-11 where colchicine was excluded from the medium.
All cell lines were plated into 1536-well plates at 500 cells/well in 5 uL media. Compounds were then pinned in dose-response using a 1536-head pin tool (Kalypsis, San Diego, CA) and plates were incubated at 37 degree C in 5% CO2 for an additional 72 h. CellTiter-Glo reagent (Promega) was dispensed into the wells, incubated for 5 min and luminescence was read on a ViewLux instrument (Perkin-Elmer). Cytotoxic compounds were defined as those that yielded a curve class of -1.1, -1.2, -2.1, -2.2, -2.3, or -2.4, a maximum response of >50% and an AC50 of < 10 uM. Cherry-picked hits from screening analysis were tested with both the KB pair of cell lines, and the pcDNA (empty vector control) and MDR-19 (P-gp overexpressing) pair were tested, in the absence and presence of tariquidar.
For CCCCCC1CC1CC1CC1CCCCCCCC(=O)O (stereo not given), the Potency was “inactive”.
For Cc1ccc(NS(=O)(=O)c2cc3c(cc2N[C@@H](C)CO)NC(=O)CC3)cc1Cl, the Potency was inconclusive [inhibitor, single point].
In the case of C[C@@H](Nc1cc(F)cc(F)c1)c1cc(C(=O)N(C)C)cc2c(=O)cc(N3CCOCC3)oc12, the Potency is reported as inconclusive [inhibitor, single point].
With O=C(c1ccc(-c2ccc(Cl)cc2)o1)N(Cc1ccccn1)c1ccc(N2CCNCC2)cc1 the Potency was inconclusive [inhibitor, single point].
For N#Cc1c2nc3ccccc3nc2n2ccc(NC(=O)c3cccs3)cc12, the Potency was active: 23.1 µM.
With Cc1cc(N2CCOCC2)cc2[nH]c(-c3c(NCC(O)c4cccc(Cl)c4)cc[nH]c3=O)nc12 (stereo not given) the Potency was active: 2.06 µM.
In the case of O=S(=O)(NCCNC/C=C/c1ccc(Br)cc1)c1cccc2cnccc12, the Potency is reported as “inactive”.
With Nc1ncnc2c1c(I)cn2[C@@H]1C[C@H](N)[C@@H](O)[C@H]1O the Potency was active: 14.6 µM.
In the case of COc1ccc([C@@H]2CNC(=O)C2)cc1OC1CCCC1, the Potency is reported as “inactive”.
For COc1cc(F)ccc1-c1ncnc(Nc2cccc(CS(C)(=N)=O)c2)n1 (stereo not given), the Potency was active: 1.46 µM.
With C=C1C(=O)OC[C@H]2C(C(=O)O)=CC3CC(C)(C)C[C@@]132 (stereo not given in full) the Potency was “inactive”.
For CC(C)(C)c1ccc(S(=O)(=O)Nc2ccc(-n3ccnc3)cc2)cc1, the Potency was inconclusive [inhibitor, partial curve].
With CN1CCN(C(=O)c2ccc3cc(CCNc4ncnc5ccc(C#N)cc45)ccc3c2)CC1 the Potency was inconclusive [inhibitor, full curve].
With CC(=O)NCCCCn1c2c(c3ccccc31)C(=O)NCC2 the Potency was “inactive”.
For Cc1cc(Nc2ncnc3ccc(NC4=NC(C)(C)CO4)cc23)ccc1Oc1ccn2ncnc2c1, the Potency was inconclusive [inhibitor, single point].
In the case of COc1ccc(Cl)c(Nc2nc3ccccc3nc2NS(=O)(=O)c2cccc(NC(=O)C(C)(C)N)c2)c1, the Potency is reported as inconclusive [inhibitor, single point].
With Cc1ccc(NS(=O)(=O)c2cc3c(cc2N[C@@H](C)CO)NC(=O)CC3)cc1C the Potency was inconclusive [inhibitor, single point].
For C=CCN(/C=C1\C(=O)OC(COC)C2(C)C1=C(O)C(=O)C1=C2C(OC(C)=O)CC2(C)C(=O)CCC12)CC=C (stereo not given), the Potency was inconclusive [inhibitor, partial curve].
For Cc1ccc(-c2nn(C(C)(C)C)c3ncnc(N)c23)cc1, the Potency was inconclusive [inhibitor, single point].
With CN(C)CC(=O)N1CCC[C@@H](n2nc(-c3ccc(Oc4ccccc4)cc3)c3c(N)ncnc32)C1 the Potency was active: 20.6 µM.
For NS(=O)(=O)c1cccc(N=Cc2c(O)[nH]c3ccccc23)c1, the Potency was inconclusive [inhibitor, partial curve, poor fit].
With O=C(/C=C/c1cccnc1)c1ccncc1 the Potency was inconclusive [inhibitor, single point].
With CC(C)n1nc(Cc2cccc3ccccc23)c2c(N)ncnc21 the Potency was inconclusive [inhibitor, single point].
With CC(C)(C)n1nc(-c2ccc(Cl)cc2)c2c(N)ncnc21 the Potency was inconclusive [inhibitor, single point].
In the case of COCCN(C)Cc1ccc2nc3sc(C(=O)N(C)C4CCCCC4)cn3c2c1, the Potency is reported as “inactive”.
For CC1Oc2cc(cnc2N)-c2c(nn(C)c2C#N)CN(C)C(=O)c2ccc(F)cc21 (stereo not given), the Potency was inconclusive [inhibitor, single point].
In the case of Nc1ncnc2c1c(-c1ccc(Oc3ccccc3)cc1)cn2C1CCCC1, the Potency is reported as active: 1.64 µM.
With Fc1ccc(-c2nc3n(c2-c2ccncc2)CCS3)cc1 the Potency was inconclusive [inhibitor, single point].
In the case of CCOc1nc2cccc(C(=O)O)c2n1Cc1ccc(-c2ccccc2-c2noc(=O)[nH]2)cc1, the Potency is reported as “inactive”.
For Cc1ccccc1Sc1ccc(/C=C2\SC(=S)NC2=O)cc1[N+](=O)[O-], the Potency was inconclusive [inhibitor, single point].
In the case of Nc1[nH]nc2nc3ccccc3nc12, the Potency is reported as inconclusive [inhibitor, single point].
With Cc1ccc(C(=O)/C=C/c2ccccc2)s1 the Potency was inconclusive [inhibitor, single point].
For CC(=O)OCC1OC(O[C@H]2CC[C@@]3(C)C(CC[C@]4(C)C3CC=C3[C@@H]5CC(C)(C)CC[C@]5(C(=O)O)CC[C@]34C)[C@]2(C)CO)C(O)C(O)C1OC1OC(C)C(O)C(OC2OCC(O)C(O)C2O)C1O (stereo not given in full), the outcome was “inactive [at 9.29 µM]”.
With CN(C)c1ccc(Nc2c3ccc(NC(=O)CCN4CCCC4)cc3nc3cc(NC(=O)CCN4CCCC4)ccc23)cc1 the Potency was inconclusive [inhibitor, single point].
With CCn1c(-c2nonc2N)nc2cncc(C(=O)N3CC[C@H](N)C3)c21 the Potency was inconclusive [inhibitor, single point].
For Nc1ccn([C@H]2O[C@@H](CO)[C@H](O)[C@H]2O)c(=O)n1, the Potency was active: 3.66 µM.
For Cc1ccc(C)c(S(=O)(=O)n2cnc3ccccc32)c1, the Potency was “inactive”.
With CNc1cc2c(Nc3cccc(Br)c3)ncnc2cn1 the Potency was inconclusive [inhibitor, single point].
With CN(C)CCOc1ccc(-c2nc(-c3ccc4c(c3)CC/C4=N/O)c(-c3ccncc3)[nH]2)cc1 the Potency was inconclusive [inhibitor, single point].
For COc1cc(/C=C/C=O)cc(OC)c1O[C@@H]1O[C@H](CO)[C@@H](O)[C@H](O)[C@H]1O, the Potency was “inactive”.
